The list shows a part of the results.
Assays:
HSkMC = human skeletal muscle cells; assay: cytotoxicity call (relative viability < 0.9); conditions: 10 µM
HepG2 = assay: cytotoxicity call (relative viability < 0.9); conditions: 10 µM
S. aureus RN4220 = assay: growth inhibition call (relative growth <= 0.2); conditions: 50 µM

Structure (SMILES)	cytotoxicity call (HSkMC)	cytotoxicity call (HepG2)	growth inhibition call (S. aureus RN4220)
COCC(=O)N1C[C@@H](C)[C@@H](OC)CN(C)C(=O)c2ccc(NC(=O)Nc3cccc(F)c3)cc2OC[C@@H]1C	inactive	inactive	inactive
Cc1ccc(S(=O)(=O)Nc2ccc3c(c2)C(=O)N([C@H](C)CO)C[C@H](C)[C@H](CN(C)S(=O)(=O)c2ccc(C)cc2)OCCCC[C@@H](C)O3)cc1	inactive	inactive	inactive
C[C@@H]1CN([C@H](C)CO)C(=O)c2cc(C#CC3(O)CCCC3)cnc2O[C@H]1CN(C)C(=O)CN(C)C	inactive	inactive	inactive
C[C@@H]1CN([C@@H](C)CO)S(=O)(=O)c2ccc(C#C[C@@H](C)O)cc2O[C@@H]1CN(C)C(=O)Nc1ccccc1	inactive	inactive	inactive
CC(C)NC(=O)N(C)C[C@H]1Oc2ccc(NS(=O)(=O)c3ccc(F)cc3)cc2C(=O)N([C@H](C)CO)C[C@H]1C	inactive	inactive	inactive
O=C(C[C@@H]1CC[C@H](NC(=O)Cc2ccccn2)[C@H](CO)O1)NCCCN1CCOCC1	inactive	inactive	inactive
C[C@@H]1CN([C@H](C)CO)C(=O)c2cccc(NS(=O)(=O)c3ccc(F)cc3)c2O[C@@H]1CN(C)S(=O)(=O)c1cn(C)cn1	inactive	inactive	inactive
COc1ccc(NC(=O)N(C)C[C@H]2Oc3ccc(NC(=O)C4CC4)cc3C(=O)N([C@H](C)CO)C[C@@H]2C)cc1	inactive	inactive	inactive
COCC(=O)N(C)C[C@H]1Oc2cc(C#CCC3CCCC3)ccc2S(=O)(=O)N([C@@H](C)CO)C[C@H]1C	inactive	inactive	inactive
C[C@H]1CN([C@@H](C)CO)C(=O)c2cccc(NC(=O)c3ccc(-c4nccs4)cc3)c2O[C@@H]1CN(C)S(=O)(=O)c1ccc(Cl)cc1	inactive	inactive	inactive
COc1ccc(S(=O)(=O)Nc2ccc3c(c2)C(=O)N([C@H](C)CO)C[C@H](C)[C@@H](CN(C)C(=O)Nc2ccc(C(F)(F)F)cc2)OCCCC[C@@H](C)O3)cc1	inactive	inactive	inactive
Cc1ccc(S(=O)(=O)N(C)C[C@H]2OCCCC[C@@H](C)Oc3ccc(NS(C)(=O)=O)cc3C(=O)N([C@@H](C)CO)C[C@@H]2C)cc1	inactive	inactive	inactive
N#Cc1ccc(O)c(O)c1	inactive	active	inactive
C[C@H](CO)N1C[C@H](C)[C@H](CN(C)C(=O)Nc2ccc3c(c2)OCO3)Oc2ccc(NC(=O)Cn3cnnn3)cc2CC1=O	inactive	inactive	inactive
CN1C(C)(C)CCCC1(C)C.O=C(O)C(O)C(O)C(=O)O	inactive	inactive	inactive
Cc1noc(C)c1NC(=O)Nc1ccc2c(c1)C(=O)N([C@@H](C)CO)C[C@H](C)[C@@H](CN(C)Cc1ccc(Oc3ccccc3)cc1)O2	inactive	inactive	inactive
C[C@H]1CN([C@@H](C)CO)C(=O)Cc2cc(NC(=O)Cn3cnnn3)ccc2O[C@@H]1CN(C)Cc1ccc(-c2ccccc2)cc1	inactive	inactive	inactive
CC(=O)Nc1ccc(CN(C)c2c(C)nc3ccc(C(=O)N4CCN(C(=O)c5ccco5)CC4)cn23)cc1	inactive	inactive	inactive
C[C@@H]1CN([C@H](C)CO)C(=O)Cc2cc(NC(=O)CCCCCC(=O)Nc3ccccc3N)ccc2O[C@@H]1CN(C)C(=O)Nc1ccc(F)cc1	inactive	inactive	inactive
CN[C@@H]1[C@@H](O)[C@@H](O[C@@H]2[C@@H](O)[C@H](O[C@H]3OC(CN)=CC[C@H]3N)[C@@H](N)C[C@H]2N)OC[C@]1(C)O	inactive	inactive	inactive
O=C(C[C@@H]1CC=CC[C@@H](Cc2ccc(F)cc2)C(=O)OC[C@H](Cc2c[nH]c3ccccc23)NC1=O)NCCO	inactive	inactive	inactive
COc1ccc(NC(=O)Nc2ccc3c(c2)CC(=O)N([C@H](C)CO)C[C@H](C)[C@H](CN(C)Cc2ccc(C(=O)Nc4ccccc4N)cc2)O3)cc1	inactive	inactive	inactive
CCCNC(=O)N1C[C@@H](C)[C@H](OC)CN(C)C(=O)c2ccc(NS(=O)(=O)CC(F)(F)F)cc2OC[C@H]1C	inactive	inactive	inactive
C[C@@H]1CN([C@@H](C)CO)C(=O)c2cccc(NC(=O)c3ccc(-c4nccs4)cc3)c2O[C@H]1CN(C)Cc1ccccc1	inactive	inactive	inactive

Reference: the antibiotic and cytotoxicity screens of Wong et al. (2023)
